In PubChem BioAssay AID1259400 (National Center for Advancing Translational Sciences (NCATS), 2018):
“And” between values parts separate entries of the source, which are not always exact repeats. Equal entries are not always repeated. The campaign covered roughly 350,000 compounds. About 2,100 (0.6%) were called active. This list was built around the results that the source calls inconclusive (neither active nor inactive); the mix of calls is not that of the screen.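 The calls were made as follows: active = activity change of -60% or lower, but not beyond a set lower limit; inconclusive = change between -60% and -40%, or beyond the set limit; inactive = change above -40%.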

biological target: Relaxin receptor 1 (Homo sapiens) (UniProt Q9HBX9); test: qHTS Assay for Antagonists of the Relaxin Receptor RXFP1; settings: HEK293-RXFP1, relaxin-stimulated cAMP HTRF, 30 min; at 57.5 µM; hits give low values
UniProt Q9HBX9, sequence (Q9HBX9 whole entry, looked up): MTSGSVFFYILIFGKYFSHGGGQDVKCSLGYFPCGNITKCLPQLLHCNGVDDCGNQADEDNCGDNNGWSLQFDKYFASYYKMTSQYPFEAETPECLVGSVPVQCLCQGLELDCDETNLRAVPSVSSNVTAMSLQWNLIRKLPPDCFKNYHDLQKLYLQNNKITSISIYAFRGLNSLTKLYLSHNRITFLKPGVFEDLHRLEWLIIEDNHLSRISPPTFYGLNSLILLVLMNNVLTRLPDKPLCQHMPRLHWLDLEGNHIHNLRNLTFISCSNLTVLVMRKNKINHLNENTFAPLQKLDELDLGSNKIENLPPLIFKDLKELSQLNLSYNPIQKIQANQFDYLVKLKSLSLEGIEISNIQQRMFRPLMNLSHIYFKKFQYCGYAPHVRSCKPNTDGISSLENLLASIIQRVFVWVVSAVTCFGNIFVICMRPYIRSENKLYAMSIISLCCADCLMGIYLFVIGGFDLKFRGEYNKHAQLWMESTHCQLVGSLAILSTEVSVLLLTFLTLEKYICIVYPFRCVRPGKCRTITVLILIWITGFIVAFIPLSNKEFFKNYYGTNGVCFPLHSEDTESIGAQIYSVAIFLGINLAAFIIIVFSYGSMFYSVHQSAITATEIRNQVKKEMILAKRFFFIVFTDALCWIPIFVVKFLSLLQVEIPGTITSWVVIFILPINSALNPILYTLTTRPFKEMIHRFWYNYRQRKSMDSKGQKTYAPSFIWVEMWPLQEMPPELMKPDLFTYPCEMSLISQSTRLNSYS
% is scaled to controls: 0 for no effect and ±100 for the full control effect.

| Structure (SMILES) | activity change, negative = inhibition |
| --- | --- |
| CCc1cccc(CC)c1NC(=O)C[n+]1cccc(C(N)=O)c1 | inconclusive: -51.2% |
| S=c1[nH]nc(-c2cccc(Cl)c2)n1Cc1ccccc1 | inconclusive: -40.4% |
| COc1ccc(C(=O)NCC(C)NC(=O)c2ccc(OC)c(Br)c2)cc1Br (configuration not stated) | inconclusive: -50.5% |
| COc1cccc(-c2csc(NC(=O)Nc3ccccc3)n2)c1 | inconclusive: -53.4% |
| Cc1ccc2[nH]c(CN3CCC(CO)(CC4CCCCO4)CC3)c(C)c2c1 (configuration not stated) | inconclusive: -43.4% |
| Cc1cc2nc(SCC(=O)Nc3ccccc3C(=O)O)[nH]c2cc1C | inconclusive: -51.6% |
| CCOC(=O)C(=Cc1ccccc1)C(=O)c1ccccc1 | inconclusive: -52.8% |
| CCc1cccc(NC(=O)C2CCCN2S(=O)(=O)c2cccc3cccnc23)c1 (configuration not stated) | inconclusive: -43.2% |
| O=C(NNc1cc(N2CCCC2)nc(N2CCCC2)n1)c1ccc([N+](=O)[O-])cc1 | inactive: -12% |
| O=c1c2ccccc2sc2c(CO)ccc(NCCN3CCCCC3)c12 | inactive: -10.1% |
| Cc1ccc(C)c(N2CCN(C(=O)C3CCN(S(=O)(=O)c4ccc5[nH]c(=O)oc5c4)CC3)CC2)c1 | inconclusive: -44.2% |
| Nn1c(SCC(=O)Nc2c(Cl)cccc2Cl)nncc1=O | inconclusive: -50.6% |
| COc1ccc(NS(=O)(=O)c2cccc(-c3n[nH]c(=S)n3Cc3ccccc3)c2)cc1 | inconclusive: -43.6% |
| CC1CCN(C(=O)c2cc3c(ccc4ccccc43)o2)CC1 | active: -60.2% |
| C=CCc1ccc(OCC(O)COc2ccc(CC=C)cc2OC)c(OC)c1 | active: -68.6% |
| Cc1nc(Nc2ccccc2)sc1-c1ccccc1 | inconclusive: -51.3% |
| Cc1cccc(OCc2nc(C#N)c(N3CCCC3)o2)c1 | inactive: -4.64% |
| Cc1ccc(NC(=O)C(C)Sc2nc3c(c(=O)[nH]2)CCCC3)cc1Cl (configuration not stated) | inconclusive: -50.6% |
| Cc1ccc2nc(-c3ccncc3)cc(C(=O)NCCc3ccc(F)cc3)c2c1 | inconclusive: -51.1% |
| O=[N+]([O-])c1ccccc1/C=C/C=N/n1c(-c2ccccc2)n[nH]c1=S | inconclusive: -45.4% |
| CCO/C=C1\SC(=S)N(c2ccc(Cl)cc2)C1=O | inconclusive: -42% |
| CCOc1cccc(C(=O)N(Cc2ccc(F)cc2)Cc2ccco2)c1 | inconclusive: -49.5% |

| Structure (SMILES) | activity change, negative = inhibition |
| --- | --- |
| Cc1ccc(N2C(=O)CCSC23C(=O)N(Cc2ccc(F)cc2)c2ccccc23)cc1 (configuration not stated) | inconclusive: -48.2% |
| CN1CCN(C(=O)/C(=C\c2cccnc2)NC(=O)c2cccc(Br)c2)CC1 | inconclusive: -56.7% |
| CC1(C)CC(=O)C2=C(C1)N(CCN1CCOCC1)C1=C(C(=O)CC(C)(C)C1)C2c1cccc(F)c1 | inactive: -0.418% |
| C/C(=N\Nc1nc(-c2cc(C)ccc2C)cs1)c1cc2c(ccc3ccccc32)oc1=O | inconclusive: -41.7% |
| O=C(Cn1cnc2c(nnn2Cc2ccc(Cl)cc2)c1=O)c1ccccc1 | inconclusive: -48.9% |
| CC1(COc2ccc(CC3SC(=O)NC3=O)cc2)CCCCC1 (configuration not stated) | inconclusive: -58.8% |
| O=S(=O)(Nc1ccc2c(c1)CCC2)c1cccs1 | inactive: 5.45% |
| Brc1ccc(CN2CCSCC2)cc1 | inactive: -4.22% |
| CN1CCN(Cc2nc3ccccc3c(=O)n2Cc2nc(-c3ccc4ccccc4c3)cs2)CC1 | inconclusive: -44.1% and inconclusive: -51.9% |
| COc1ccc(OCc2ccc(-c3nc(C#N)c(NCc4cccnc4)o3)o2)cc1 | inactive: -14.9% |
| CCCC1=NN(C(=O)C(=O)Nc2ccc(Br)cc2)C(O)(C(F)(F)F)C1 (configuration not stated) | inconclusive: -55.7% |
| O=C(Nc1nc2cc3c(cc2s1)OCCO3)c1cccs1 | inconclusive: -45.5% |
| Cc1ccc(NC(=O)CCC(=O)c2cccs2)c(O)c1 | inactive: -0.785% |
| COc1ccc(C(=O)Nc2ccc(NC(=O)c3cccs3)c(OC)c2)cc1Cl | inactive: -14.5% |
| O=C1NC2CCCCN2C12CCN(CCCN1c3ccccc3CCc3ccc(Cl)cc31)CC2 (configuration not stated) | active: -73.6% |
| COc1ccccc1N1CCN(S(=O)(=O)CCNC(=O)C(c2ccccc2)c2ccccc2)CC1 | inactive: 3.03% |
| Cn1cccc1C(=O)NC(=O)COC(=O)c1ccc(S(C)(=O)=O)c([N+](=O)[O-])c1 | inconclusive: -46.9% |
| O=C(O)CCC(=O)c1ccc(-c2ccccc2)cc1 | inconclusive: -46.5% |
| CCOc1ccc(OCC)c(NC(=O)C2CCCN(S(=O)(=O)c3ccc(C)cc3)C2)c1 (configuration not stated) | inconclusive: -42% |
| NNC(=O)CNc1ccccc1Cl | inconclusive: -43.1% |
| CCc1ccccc1N(CC)C(=O)Cn1nc(Cc2ccncc2)c2ccccc2c1=O | inactive: 15.7% |
| O=C(/C=C/Nc1ccccc1Oc1ccccc1)c1ccco1 | inconclusive: -42.6% |

| Structure (SMILES) | activity change, negative = inhibition |
| --- | --- |
| O=C(/C=C/c1cccs1)Nc1scc(-c2ccccc2)c1C(=O)O | inconclusive: -48.6% |
| O=C(COC(=O)C1=NN(c2ccccc2)C(=O)CC1)Nc1nc(-c2ccc(F)cc2)cs1 | inconclusive: -43.2% |
| CCC(Oc1ccccc1)C(=O)OCC(=O)Nc1sccc1C(N)=O (configuration not stated) | inconclusive: -50.2% |
| COCCN(C(=O)CSc1ncn[nH]1)c1c(N)n(Cc2ccccc2)c(=O)[nH]c1=O | inactive: 8.56% |
| CSc1nc(C(C)C)ccc1CNC(=O)CC(C)c1ccccc1 (configuration not stated) | inconclusive: -40.4% |
| CCc1cc2c(=O)c(-c3ccc4c(c3)OCCO4)coc2cc1OS(C)(=O)=O | active: -84.4% |
| Cc1cc(C)c(O)c(-c2n[nH]c3c2C(c2cccc(O)c2)N(Cc2ccco2)C3=O)c1 (configuration not stated) | active: -80.5% |
| Cn1c(N2CCOCC2)c(/C=N/O)c2ccccc21 | inconclusive: -48.2% |
| COc1cccc(-c2cc(C(F)(F)F)nc(N3CCOCC3)n2)c1 | inactive: -17.4% |
| CNC(=O)C(=O)N/N=C/c1ccccn1 | inconclusive: -46.4% |
| CCC(CC)c1nnc(NC(=O)CC(C)c2ccccc2)s1 (configuration not stated) | inactive: 8.46% |
| O=C(CSc1nc(-c2ccccc2)[nH]c1-c1ccccc1)Nc1ccc2c(c1)OCO2 | inconclusive: -56.2% |
| Cc1cccc(Nc2nc(-c3ccccc3)c3cc(C)ccc3n2)c1 | inactive: -10.1% |
| Fc1ccc(Nc2nc3nonc3nc2Nc2cccc(C(F)(F)F)c2)cc1 | active: -73.9% |
| COc1ccccc1CN1CCNC(=O)C1CC(=O)NC1Cc2ccccc2C1 (configuration not stated) | inconclusive: -46.6% |
| Cc1cccc(C(=O)Oc2ccc(/C=N/NC(=O)c3ccccc3O)cc2)c1 | inconclusive: -47.5% |
| O=c1[nH]c(/C=C2\C=Nc3ccccc32)c(O)n1Cc1ccccc1F | inconclusive: -47.1% |
| O=C(c1ccc(Br)o1)N1CCN(c2ccc(F)cc2)CC1 | inactive: 10.2% |
| COc1cc2c(cc1NC(=S)NC(=O)/C=C/c1ccc(OC)c(OC)c1)oc1ccccc12 | inconclusive: -51.9% |
| CCCCN(C)C(=O)C1CCN(Cc2ccc(OCc3ccccc3)cc2)CC1 | inactive: 3.28% |
| O=C(CSc1ccc(-c2cccnc2)nn1)c1ccc([N+](=O)[O-])cc1 | inconclusive: -41% |
| Cc1cc(=O)[nH]c(SCc2nc3ccc([N+](=O)[O-])cc3[nH]2)n1 | inconclusive: -51.6% |

| Structure (SMILES) | activity change, negative = inhibition |
| --- | --- |
| CCOc1ccc(C2N3CC4(C(C)C)CN2CC(C(C)C)(C3)C4=O)cc1OC (configuration not stated) | inactive: -1.27% |
| COc1ccc(/C=C/C(=O)N2CCC(c3nc4ccccc4o3)CC2)cc1OC | inconclusive: -52.7% |
| CNCc1ccccc1Sc1ccc(O)c(O)c1 | inconclusive: -57.5% |
| Cc1ccc(CNC(=O)c2sc3nc4n(c(=O)c3c2C)CCCC4)cc1 | inactive: -16.4% |
| CC1CN(C(=O)N2CCC(C(=O)N3CCN(c4ccccc4)CC3)CC2)c2cc(Cl)ccc2O1 (configuration not stated) | inconclusive: -41.9% |
| Cc1ccc(N/C=C/c2onc(C)c2[N+](=O)[O-])cc1 | inactive: 5.75% |
| CCc1ccc2[nH]c(=O)c(CN(CCN(C)C)C(=S)NCc3ccco3)cc2c1 | active: -64.1% |
| C=CCNCC(=O)N1N=C(c2ccc3ccccc3c2)CC1c1ccc(OC)cc1 (configuration not stated) | inconclusive: -55.6% |
| CN(C)c1ccc(C(CNC(=O)COc2ccc(Cl)cc2)N2CCCC2)cc1 (configuration not stated) | active: -64% |
| Cc1ccc(NC(=O)Cc2coc3ccc(C(C)C)cc23)c(C)c1 | inconclusive: -44.3% |
| CCC1CN(C(=O)Nc2cccc3c2CCCC3)c2cc(Cl)ccc2O1 (configuration not stated) | inconclusive: -51.4% |
| c1ccc2c(c1)OC(CCCN1CCCCC1)c1ccccc1S2 (configuration not stated) | inconclusive: -43.5% |
| CCOC(=O)c1ccc2[nH]c3c(c2c1)CCCCC3=O | inactive: -16.4% |
| CC(=O)Nc1ccc(S(=O)(=O)N2CCC(c3nnc(-c4ccc(C)cc4)o3)CC2)cc1 | inactive: -19.4% and inactive: 2.68% |
| O=C(/C=C/c1ccccc1[N+](=O)[O-])N1CCCCC1 | inactive: -7.55% |
| COC(=O)c1sccc1NC(=S)N1CCCCC1 | inconclusive: -55.2% |
| Cc1cc(SCC(=O)c2ccc(O)c(O)c2)nc2ccccc12 | inconclusive: -55.2% |
| COc1ccc(Oc2c(C(F)(F)F)oc3c(CN4CCCC(C)C4)c(O)ccc3c2=O)cc1 (configuration not stated) | inactive: 15.3% |
| O=C(CC(NC(=O)c1ccccc1)c1ccccc1)Nc1ccc(F)c(F)c1 (configuration not stated) | inconclusive: -42.9% |
| Cc1ccc(-c2nc(Nc3ccc(N4CCOCC4)cc3)c3ccccc3n2)cc1 | inactive: 4.76% |
| COc1cc(NC(=O)C(=O)NCCN(C)C)c(OC)cc1Cl | active: -69.4% |
